# Measured values from PubChem BioAssay AID686978 (National Center for Advancing Translational Sciences (NCATS), 2013).
# About 64,000 (15%) of roughly 420,000 compounds were called active. The inconclusive results got no clear call from the source; some entries with a clear call stand among them for comparison. The call rests on the fitted dose curve; in most records, active means well fitted inhibition curve with a large enough effect; inconclusive means small, poorly fitted or top-dose-only effect; inactive means flat fitted curve, though single readings scatter. Potencies of inconclusive entries are left out as doubtful fits.
# Test: qHTS for Inhibitors of human tyrosyl-DNA phosphodiesterase 1 (TDP1): qHTS in cells in absence of CPT; further: nearly all actives have a fitted effect of over 55% in size
# Conditions: DT40 Tdp1-/- hTDP1 cells, no CPT, ATP luminescence, 48 h; activity change, negative = growth inhibition: at 46.2 µM (top of the series) unless noted
# Outline: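 Growth kinetics read by CellTiter-Glo luminescence after ≥48 hr at 37 °C. Cells: DT40 Tdp1-/- stably carrying human TDP1, 400 per well, compound exposure in the absence of CPT (DMSO vehicle).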
# On the % scale 0 is the no-effect control and ±100 the full control effect; potency means the concentration at half of the fitted maximal effect; tags describe the fitted curve by direction and shape.
SMILES,"activity change, negative = growth inhibition",Potency
CC(C)(C)SCCNC(=O)Nc1ccccc1,inactive: 5.49%,
Cc1ccc(CNS(=O)(=O)c2cc3[nH]c(=O)c(=O)[nH]c3cc2C)cc1,inactive: -5.29%,
Cc1ccc(NC(=O)C(C)OC(=O)Cc2c[nH]c3ccccc23)cc1 (centres undefined),inactive: -28.7%,
CCN(CC)CCn1c(NCc2ccco2)nc2ccccc21,inactive: -13.2%,
CCCCn1c(N)c(N(CC(C)C)C(=O)Cc2ccc(S(=O)(=O)N3CCOCC3)s2)c(=O)[nH]c1=O,inactive: 1.12%,
Cc1cccc(NC(=O)c2ccc(S(=O)(=O)NCc3ccco3)cc2)n1,,"inconclusive [inhibitor, partial curve]"
O=C1/C(=C/c2cccc(Br)c2)SC(=S)N1/N=C/c1cc([N+](=O)[O-])ccc1O,,"inconclusive [inhibitor, single point]"
CC(C)(C)OC(=O)N1CCC(c2c(C(=O)O)cnn2-c2ccccc2Cl)CC1,inactive: -11%,
C=C(C)COc1ccc(-c2nc(N)ncc2-c2ccc(OC)c(OC)c2)c(O)c1,,"inconclusive [inhibitor, single point]"
C=CCn1c(SCC(=O)NCC2CCCO2)nc2scc(-c3ccco3)c2c1=O (centres undefined),,"inconclusive [inhibitor, single point]"
Cc1ccc(S(=O)(=O)NC2(C(F)(F)F)C(=O)Nc3c2c(=O)[nH]c(=O)n3-c2ccccc2)cc1 (centres undefined),inactive: -9.21%,
COc1ccc(/C=N/NC(=O)c2ccc(N(C)S(=O)(=O)c3ccccc3)cc2)cc1OC,,"inconclusive [inhibitor, single point]"
CC1(C(=O)O)CCCN1C(=O)c1cccc(F)c1 (centres undefined),inactive: 8.73%,
NC(=O)c1nc(-c2ccc(F)c(F)c2)nc2c1[nH]c(=O)n2-c1cccc(Cl)c1,inactive: -17.1%,
O=C1NCCN1CCNS(=O)(=O)c1cc(C(F)(F)F)cc(C(F)(F)F)c1,inactive: 11%,
CC(CCc1ccco1)NC(=O)CCc1nnc2ccc(NCc3ccccc3)nn12 (centres undefined),inactive: 21.5%,
O=C(CN1CCCCC1)NNc1nc(-c2ccccc2)c2cc(Br)ccc2n1,inactive: -7.73%,
Cc1nnc2sc(SCC(=O)Nc3ccc(Cl)cc3)nn2c1=O,,"inconclusive [inhibitor, single point]"
COc1cccc(CC2(CO)CCN(Cc3ccc(NC(C)=O)cc3)CC2)c1,inactive: -16.2%,
O=C1C2CCCCC2C(=O)N1c1ccc(NC2CCCCC2)c([N+](=O)[O-])c1 (centres undefined),,"inconclusive [inhibitor, single point]"
O=C(NCc1ccco1)/C(=C/c1cccc(C(F)(F)F)c1)c1nc2ccccc2[nH]1,,active: 5.8 µM
N#C/C(=C/c1ccc(-c2ccccc2[N+](=O)[O-])o1)C(=O)NCCN1CCCCC1,inactive: -14.1%,
CN(C)S(=O)(=O)c1cccc(C(=O)NC2CCCc3ccccc32)c1 (centres undefined),,"inconclusive [inhibitor, single point]"

SMILES,"activity change, negative = growth inhibition",Potency
CSc1nc2sc3c(c2c(=O)n1Cc1ccccc1)CCC(C(C)(C)C)C3 (centres undefined),,"inconclusive [inhibitor, partial curve]"
Cc1nn(C)c(C)c1/C=C(\C#N)C(N)=O,inconclusive: -30.5% [inhibitor],
Cc1ccc(Sc2c([N+](=O)[O-])ncn2C)cc1,,"inconclusive [inhibitor, single point]"
O=C(NCc1ccccc1)C1=C[C@H](C2CCCCC2)C[C@H](OCCCCO)O1,,"inconclusive [inhibitor, single point]"
CCNc1ccc(C(=O)OCC(=O)Nc2cc(C)on2)cc1[N+](=O)[O-],inactive: -28.8%,
CCOC(=O)C(=O)/C(=C\N(C)C)c1onc(-c2c(Cl)cccc2Cl)c1C(=O)OC,,"inconclusive [inhibitor, single point]"
CN1CCC(OC(c2ccccc2)c2ccc(Cl)cc2)C1 (centres undefined),,active: 20.6 µM
O=C(COC(=O)c1cc(-c2ccccc2)nc2ccccc12)c1ccc(Br)cc1,,"inconclusive [inhibitor, single point]"
COc1ccccc1N1CCN(S(=O)(=O)c2ccc(-c3ccc(=O)[nH]n3)o2)CC1,,"inconclusive [inhibitor, partial curve]"
COC(=O)/C=C1/S/C(=N/NC(=O)c2ccccc2OC)NC1=O,inconclusive: 3.04% [inhibitor],
COc1cc2c(cc1NC(=S)NC(=O)/C=C/c1ccco1)oc1ccccc12,,"inconclusive [inhibitor, partial curve]"
CN(C)c1ccc(C=C2SC(=S)N(Cc3ccco3)C2=O)cc1,,"inconclusive [inhibitor, partial curve]"
CC(=O)Nc1cccc(NC(=O)c2ccccc2OCc2ccccc2)c1,,"inconclusive [inhibitor, single point]"
CC(=O)Oc1ccc(N2C(=O)C3C4C=CC(O4)C3C2=O)cc1 (centres undefined),,"inconclusive [inhibitor, single point]"
COc1ccc(OCC(=O)NC2CCSc3ccccc32)cc1 (centres undefined),,"inconclusive [inhibitor, single point]"
COC(=O)c1ccc(NC(=O)CCN2CCN(CCC(=O)Nc3ccc(C(=O)OC)cc3)CC2)cc1,,"inconclusive [inhibitor, partial curve]"
O=C(Nc1ccncc1)c1cc(-c2ccccn2)nc2ccc(Br)cc12,inactive: 3.21%,
CC(=O)c1cccc(NC(=O)C2CCN(S(=O)(=O)c3ccc4c(c3)CCCN4C(C)=O)CC2)c1,,"inconclusive [inhibitor, single point]"
CCN(Cc1ccccc1)C(=O)c1ccc(NC(=O)c2ccc(OC)cc2)cc1,,"inconclusive [inhibitor, single point]"
COc1cc(C)c(COc2ncnc3ccccc23)cc1OC,inconclusive: -32.9% [inhibitor],
COc1ccc(C(=O)C[n+]2cccc3cc(C)ccc32)cc1,,"inconclusive [inhibitor, single point]"
O=C(CSc1nnc(-c2ccco2)n1Cc1ccccc1)c1ccc(F)cc1,,"inconclusive [inhibitor, single point]"
CC(=O)Nc1ccc(NC(=O)COc2c(C)cc(Br)cc2C)cc1,inactive: -3.08%,

SMILES,"activity change, negative = growth inhibition",Potency
COc1ccc(CNc2ncnc3ccc(-c4ccc(N(C)C)cc4)cc23)c(OC)c1,,"inconclusive [inhibitor, partial curve, poor fit]"
Cc1ccccc1N1C(=O)C(Cc2ccc(F)cc2)S/C1=C(\C#N)C(N)=O (centres undefined),inactive: -9.37%,
CCN1CCN(C(=O)c2ccc(CN(c3ccccc3)S(=O)(=O)c3ccccc3)cc2)CC1,inactive: -54.1%,
Cc1cnc(CNc2ncncc2-c2ccc3c(c2)OCO3)cn1,,"inconclusive [inhibitor, single point]"
COc1ccc(-c2nn3c(C4CCCCC4)nnc3s2)cc1OC,,"inconclusive [inhibitor, single point]"
O=C(CSc1cn(Cc2ccccc2)c2ccccc12)Nc1nccs1,,"inconclusive [inhibitor, single point]"
O=c1[nH]c(C2CC2)nc2sc3c(c12)CCCC3,inactive: 14.3%,
Cc1c(C(=O)OCc2ccccc2)[nH]c2c1C(=O)CC(c1ccc(C(C)(C)C)cc1)C2 (centres undefined),,active: 18.4 µM
CSc1ccc(OC2CCCCC2NS(=O)(=O)c2ccc(Cl)cc2)cc1 (centres undefined),,"inconclusive [inhibitor, single point]"
O=C(CSc1nnc2c(n1)[nH]c1ccccc12)Nc1ccc(N2CCOCC2)cc1,,"inconclusive [inhibitor, partial curve]"
CC1=C(C(=O)OCc2ccccc2)C(c2ccc(C(C)(C)C)cc2)NC(=O)N1CCCCCC(=O)O (centres undefined),,"inconclusive [inhibitor, full curve, poor fit]"
O=C(Nc1cccc(S(=O)(=O)N2CCCCC2)c1)c1ccco1,,"inconclusive [inhibitor, single point]"
Cc1ccc(CN2CCCn3nc(C(=O)NCCc4ccccc4C)cc3C2=O)cc1,,"inconclusive [inhibitor, partial curve, poor fit]"
CC(=O)Nc1ccc2nc(CN3CCN(Cc4ccc(F)cc4)C(CCO)C3)ccc2c1 (centres undefined),,"inconclusive [inhibitor, full curve, poor fit]"
CCC(C)(C)NC(=O)C(c1ccc(O)cc1)N(C(=O)Cn1nnc2ccccc21)c1ccc(NC(C)=O)cc1 (centres undefined),inactive: 3.11%,
Cc1nn(-c2ccc(F)cc2)c(C)c1CN1CCN(CCc2ccccc2)C(CCO)C1 (centres undefined),,"inconclusive [inhibitor, single point]"
O=C(N/N=C/c1cccnc1)c1ccccc1OCc1cccc(Br)c1,,"inconclusive [inhibitor, single point]"
CCN1C(c2ccc(F)cc2)=CS/C1=C(/C#N)c1nnc2n1-c1ccccc1SC2,,"inconclusive [inhibitor, single point]"
O=C(c1cc2nc(-c3ccccc3)cc(-c3ccccc3)n2n1)N1CCN(C(=O)c2ccco2)CC1,,active: 14.6 µM
c1ccc(CNc2nc3ccccc3[nH]2)cc1,,active: 18.4 µM
CCc1cccc(NC(=O)c2cc3c(=O)n(Cc4ccccc4)ccc3nc2C)c1,,"inconclusive [inhibitor, single point]"
Cc1ccc(-n2nnnc2SCC(=O)Nc2ccccc2-c2ccccc2)cc1C,,"inconclusive [inhibitor, single point]"
CN(Cc1ccccc1)CC(O)COc1ccc(CNCc2cccnc2)cc1 (centres undefined),,"inconclusive [inhibitor, partial curve, poor fit]"
